Assay results published in PubChem BioAssay AID485344 (National Center for Advancing Translational Sciences (NCATS), 2010).
Hit rate of the full screen: of about 340,000 compounds, about 6,900 (2%) were called active. Rule as the data show it: active = inhibition above about 30%; inactive = below that, where a call was filed. The entries are a selection whose mix differs from that of the whole data set. The source gives no active or inactive call for entries shown without one.
Also: 0% is about no effect.

What follows are compounds tested against D(2) dopamine receptor (Homo sapiens) (UniProt P14416) (assay: HTS Assay for Allosteric Antagonists of the Human D2 Dopamine Receptor: Primary Screen for Antagonists). Details: HEK293 TREx D2 cells, calcium flux, dopamine EC80; at 10 µM; stronger effect = higher value.
Chain of UniProt P14416 (P14416 whole entry, looked up): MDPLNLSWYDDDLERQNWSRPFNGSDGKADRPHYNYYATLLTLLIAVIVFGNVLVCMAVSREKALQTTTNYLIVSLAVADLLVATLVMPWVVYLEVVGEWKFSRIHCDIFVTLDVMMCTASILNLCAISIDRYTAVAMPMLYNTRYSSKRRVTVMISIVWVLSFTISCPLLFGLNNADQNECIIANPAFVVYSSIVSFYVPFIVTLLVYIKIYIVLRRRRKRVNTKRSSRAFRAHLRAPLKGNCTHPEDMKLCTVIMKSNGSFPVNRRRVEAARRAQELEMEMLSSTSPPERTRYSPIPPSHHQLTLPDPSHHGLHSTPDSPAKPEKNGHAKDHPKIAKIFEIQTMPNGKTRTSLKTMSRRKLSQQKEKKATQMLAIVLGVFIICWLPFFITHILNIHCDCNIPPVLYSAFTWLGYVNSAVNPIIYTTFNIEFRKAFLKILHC
Procedure, shortened: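 HEK293 T-REx D2 cells, tet-induced, calcium dye no-wash. Cpd pintool add, 180 s kinetic, then EC80 DA, 180 s kinetic. Ca flux read.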
Work on `Cc1cc(C)cc(Nc2nc3ccccc3nc2-n2nc(C)cc2C)c1` yielded an inhibition of -7.79%. `COc1ccc(-c2cn3c(n2)sc2cc(C(=O)Nc4c(C)cccc4C)ccc23)cc1` gave an inhibition of 17.3%. `Cc1ccc(CNC(=O)C2(c3cccs3)CCOCC2)cc1` was tested, and the inhibition was -7.45%. Work on `CCC1CCCCN1CCCNC(=O)c1cn(CC)c2ccc(S(=O)(=O)N(C)C3CCCCC3)cc2c1=O` (stereo unspecified) yielded an inhibition of -7.94%. `CC(C)(C)c1ccc(C(=O)Nc2ccc(C(=O)OCc3cc(=O)n4ccsc4n3)cc2)cc1` was tested, and the inhibition was 12.6%. For `Cc1nc2ccc(S(=O)(=O)CCC(=O)Nc3ccc(C(C)C)cc3)cc2s1`, the inhibition was 12.6%. `COc1ccccc1C(=O)Nc1c(C(=O)N2CCN(c3ccccc3F)CC2)oc2ccccc12` was tested, and the inhibition was 7.28%. Work on `Cc1cc2c(cc1S(=O)(=O)NCc1ccccc1)OCC(=O)N2` yielded an inhibition of 6.47%. In the case of `Cc1ccc(NC(=O)c2ccc(COc3ccccc3Cl)o2)cc1`, the inhibition is reported as -0.755%. Compound `COc1ccc(NC(=O)CCCSc2nc(-c3ccco3)cc(C(F)(F)F)n2)cc1` has an inhibition of 2.74%. `O=C(c1ccccc1)c1ccc2nc(N3CCN(c4ccccc4)CC3)c3nncn3c2c1` gave an inhibition of 7.9%. With `Cc1ccc(CNC(=O)c2ccc3c(c2)NC(=O)C(CS(=O)(=O)Cc2ccc(F)cc2)N3)cc1` (stereo unspecified) the inhibition was 2.53%. For `CN(C)c1cccc(C(=O)Nc2nc3ccc(S(=O)(=O)NC(C)(C)C)cc3s2)c1`, the inhibition was 9.18%. With `COc1cc2c(cc1NC(=O)COc1ccc(Br)cc1C)oc1ccccc12` the inhibition was 3.61%. `Cc1ccccc1NS(=O)(=O)c1ccc2c(c1)NC(=O)CCS2` gave an inhibition of -11.8%. `CC(C)CCNC(=O)CCC(=O)N1Cc2ccccc2Oc2ncccc21` showed an inhibition of 1.95%. With `CCN(C(=O)CCS(=O)(=O)c1ccc2c(c1)oc(=O)n2C)c1ccc(OC)cc1` the inhibition was 5.93%. Compound `Cc1[nH]c2ccc(C(=O)Nc3ccc(F)cc3)cc2c1C` has an inhibition of 5.44%. With `Cc1ccccc1CN1C(=O)c2ccccc2S(=O)c2ccc(C(=O)NCc3ccco3)cc21` (stereo unspecified) the inhibition was 21.4%. For `Cc1ccc(NC(=O)CSc2nc3c(c(=O)[nH]2)CCC3)cc1Cl`, the inhibition was 11.6%. Compound `CCS(=O)(=O)N1CCC2(CC1)OC(=O)C(C)=C2C(=O)NCc1cccc(Cl)c1` has an inhibition of -4.57%. `O=c1c([N+](=O)[O-])c(NCCN2CCCCCC2)c2ccccc2n1-c1ccccc1` was tested, and the inhibition was active: 48.8%. For `CCn1c(COc2cccc(C)c2)nc2ccccc21`, the inhibition was -9.94%. `O=S(=O)(c1ccc(Br)cc1)c1nc(-c2cccs2)oc1SCc1ccc(F)cc1` gave an inhibition of 14.2%. With `O=C(Nc1ccccc1)c1ccccc1CCc1ccccc1` the inhibition was active: 31.8%. Compound `Cc1oc(-c2ccccc2F)nc1CS(=O)(=O)CC(=O)N1CCN(c2ccc(Cl)cc2)CC1` has an inhibition of 9.36%. `CCOc1ccc(C(=O)NCC(=O)OCc2c(C)noc2C)cc1OCC` was tested, and the inhibition was active: 37.1%. `COc1ccc(CCn2c(=O)c3ccccc3n(CC(=O)Nc3cccc(C)c3)c2=O)cc1OC` showed an inhibition of -20.9%. For `CC(=O)Nc1ccccc1-c1nc2ccccc2n(CC(=O)Nc2ccc(C)c(Cl)c2)c1=O`, the inhibition was 5.2%. `CCc1cccc(NC(=O)c2c(N3CCCC3=O)c3cc(C)ccc3n2C)c1` was tested, and the inhibition was 13.8%. For `Cc1ccc(C)c(S(=O)(=O)c2cn(C)c3cc(F)c(F)cc3c2=O)c1`, the inhibition was -4.49%. With `Cc1ccc(CN2CCN(CCCc3ccccc3)CC2CCO)cc1` (stereo unspecified) the inhibition was active: 49.2%. Work on `Cc1ccc(S(=O)Cc2ccc(C(=O)NC3CCCCCC3)o2)cc1` (stereo unspecified) yielded an inhibition of 4.14%. `Cc1ccc(S(=O)(=O)Nc2ccc3[nH]c(=O)sc3c2)cc1C` was tested, and the inhibition was -21.6%. `O=C(c1ccc2c(c1)N(Cc1ccc(Cl)cc1)C(=O)c1ccccc1S2(=O)=O)N1CCC(Cc2ccccc2)CC1` was tested, and the inhibition was -9.24%. In the case of `Cc1ccc(N2CC(NC(=O)c3ccco3)CC2=O)cc1` (stereo unspecified), the inhibition is reported as -26.4%. For `CCOc1ccc(NC(=O)CSC2=Nc3ccccc3C3=NC(CC(=O)NCc4ccccc4OC)C(=O)N23)cc1` (stereo unspecified), the inhibition was -1.17%. For `O=C(c1ccc2c(c1)N(Cc1ccc(F)cc1)C(=O)c1ccccc1S2(=O)=O)N1CCCCCC1`, the inhibition was 25.3%. `O=C(Nc1cc2c(cc1C(=O)c1ccc(Br)cc1)OCCO2)c1ccc(Cl)cc1` gave an inhibition of 4.95%. `CCOc1ccc(Nc2nc(N)c(C(=O)c3ccccc3Cl)s2)cc1` gave an inhibition of -5.73%. `Cc1cccc(CC(=O)NC2CC(=O)N(c3ccc4c(c3)OCCO4)C2)c1` (stereo unspecified) was tested, and the inhibition was -10.3%. `Cc1ccccc1NC(=O)c1ccno1` was tested, and the inhibition was active: 31.7%. For `CCOC(=O)c1ccc(N2C(=O)c3[nH]nc(-c4ccc(C)cc4)c3C2c2ccc(O)cc2)cc1` (stereo unspecified), the inhibition was 27.3%. `Cc1ccccc1CSc1ncc(Cl)c(C(=O)NCc2ccccc2)n1` showed an inhibition of 1.6%. With `CCC(=O)N1CCc2cc(Br)cc(S(=O)(=O)CCC(=O)Nc3ccc(CC)cc3)c21` the inhibition was 6.18%. In the case of `COc1ccc(-c2cn3c(n2)sc2cc(C(=O)Nc4ccc(F)cc4)ccc23)cc1`, the inhibition is reported as 10.2%. In the case of `CC(=O)OC1=C(C(C)=O)N(Cc2ccccc2)S(=O)(=O)c2ccccc21`, the inhibition is reported as -3.01%. For `Cc1ccc(Cl)cc1NC(=O)c1csnn1`, the inhibition was -3.17%. For `Cc1cc(NC(=O)c2ccc(F)cc2)ccc1-c1cc2ccccc2oc1=O`, the inhibition was 3.99%. In the case of `CCOC(=O)c1nnn(CC(=O)NC(=O)Nc2ccccc2F)c1C(=O)OCC`, the inhibition is reported as 15.4%. For `O=C(c1cc(-c2ccc(Br)cc2)n[nH]1)N1CCN(S(=O)(=O)c2ccc(Br)s2)CC1`, the inhibition was 3.36%. For `CCCCSc1nnc2[nH]c(=O)cc(C)n12`, the inhibition was 0.185%. `Cc1ccc2c(c1)C(=O)OC(C(=O)Nc1ccc(C(=O)O)cc1)C2` (stereo unspecified) was tested, and the inhibition was -1.27%. `O=C(Nc1ccc(Cl)cc1)c1ccc2oc(=O)n(Cc3ccccc3)c2c1` showed an inhibition of -15.7%. Compound `COc1ccc(C(=O)CN2CCN(S(=O)(=O)c3ccc(F)cc3)CC2)cc1` has an inhibition of 18.9%. `COc1cc2c(cc1OC)C(COc1ccc3c(C)cc(=O)oc3c1)N(C(=O)c1ccc(C)cc1)CC2` (stereo unspecified) was tested, and the inhibition was 14.5%. In the case of `Cc1ccc(C)c(NC(=O)CSc2nc(=O)n(CCN3CCOCC3)c3c2CCC3)c1`, the inhibition is reported as -10.7%. With `CC(C)Cn1cc(NC(=O)NCc2ccc(Cl)cc2)c2ccccc2c1=O` the inhibition was -2.16%. `COc1ccc(C2c3c(n(C)c4ccccc34)C(=O)N2CC(=O)Nc2c(C)cc(C)cc2C)cc1` (stereo unspecified) was tested, and the inhibition was 6.94%. Compound `CCOc1ccccc1CNC(=O)C(CC)n1nc(C)c2c(C)n(-c3ccccc3)nc2c1=O` (stereo unspecified) has an inhibition of -3.23%. Compound `CCOC(=O)N1CCC(NC(=O)c2ccc3c(c2)N(Cc2ccccc2)C(=O)c2ccccc2S3(=O)=O)CC1` has an inhibition of -15.6%. In the case of `COc1ccc(Br)c2c1-c1nc(NC(=O)c3ccc(F)cc3)sc1C2`, the inhibition is reported as 7.29%. `CCc1ccc(-c2nc3c(c(SCc4ccccc4)n2)Cc2c(CO)cnc(C)c2O3)cc1` was tested, and the inhibition was 12.8%. Compound `CC(C)Oc1ccc(CNC(=O)c2cc3cccc4c3n2CC(C)S4)cc1` (stereo unspecified) has an inhibition of 10.5%. For `Cc1ccc(Cl)cc1NC(=S)N(CCCN1CCN(C)CC1)Cc1cccs1`, the inhibition was active: 45.1%. Work on `CCOc1ccc(C2C(=O)N(C3CCCCC3)CC(=O)N2Cc2ccccc2OC)cc1OC` (stereo unspecified) yielded an inhibition of -9.87%. With `Cc1ccc(Cn2c(C(=O)Nc3ccc(Cl)cc3)cc3sccc32)cc1` the inhibition was 17.6%. `Cc1ccc(-c2onc(C)c2C)cc1S(=O)(=O)N1CCC(C)CC1` showed an inhibition of 3.62%. With `COc1ccc(Cl)cc1NC(=O)c1ccc(CN2C(=O)CCn3nc(C)cc32)cc1` the inhibition was 4.93%. For `O=C(O)C1CCCC2CN3CCc4c([nH]c5ccccc45)C3C(O)C21` (stereo unspecified), the inhibition was active: 57.1%. In the case of `COc1cc(Cl)c(C)cc1NC(=O)CNC(=O)Cn1ccc2ccccc2c1=O`, the inhibition is reported as 1.64%. With `Cc1nc2cc(-c3ccc(Cl)cc3)nn2c(C)c1CCC(=O)N1CCN(c2ccccc2)CC1` the inhibition was 26%. In the case of `CCN(C(=O)CSc1nnc(-c2cc3occc3n2C)n1-c1ccccc1C)c1ccccc1`, the inhibition is reported as 2.55%. Compound `O=C(CN1C(=O)COc2ccc(S(=O)(=O)N3CCOCC3)cc21)NCc1ccc(Cl)cc1` has an inhibition of -6.8%. `CS(=O)(=O)c1ncc(Cl)c(C(=O)N2CCN(c3cccc(Cl)c3)CC2)n1` showed an inhibition of 16.3%. With `CC(=O)Nc1ccc(OCC(O)CN2CCN(c3ccc(Cl)cc3)CC2)cc1` (stereo unspecified) the inhibition was active: 40.2%. In the case of `CCOc1ccc(Nc2sc(C(=O)c3ccc(F)cc3)c(N)c2S(=O)(=O)c2ccc(C)cc2)cc1`, the inhibition is reported as -2.94%. `Cc1oc2ncn(CC(C)C)c(=O)c2c1C(=O)NCc1cccc(Cl)c1` showed an inhibition of -6.59%. Work on `COC(=O)CC(=O)CSc1nc2cc(C(=O)NC(C)C)ccc2c(=O)n1CCc1ccccc1` yielded an inhibition of -4.42%. For `Cc1ccc(C(=O)OC2=C(C(=O)c3ccccc3)N(C)S(=O)(=O)c3ccccc32)cc1`, the inhibition was 16.9%. For `CCOc1ccc(CN(C)CC(=O)Nc2ccc3c(c2)CCC3)cc1OC`, the inhibition was active: 30.1%. Work on `O=C(Cc1ccc(-c2ccccc2)cc1)NCCS(=O)(=O)N1CCN(c2cccc(Cl)c2)CC1` yielded an inhibition of -1.12%. Compound `Cc1cccc(-c2nc(SCCCOc3cc(C)c(Cl)c(C)c3)n3[nH]c(=O)cc3n2)c1` has an inhibition of 2.13%. Work on `COc1ccc(Nc2ncnc3c2cnn3-c2cc(Cl)ccc2C)cc1OC` yielded an inhibition of 1.35%. Compound `CCCCN(CC)CCCNC(=O)Cn1nc(CC)n2c(cc3sccc32)c1=O` has an inhibition of 4.86%. For `CSc1ncc(C(=O)NCc2ccc(F)cc2)c(-c2ccccc2)n1`, the inhibition was 11.1%. With `COc1ccc2c(c1)c1c(c(=O)n(CCc3ccccc3)c(=O)n1Cc1cccc(C)c1)n2C` the inhibition was -6.59%. `CCOC(=O)c1ccc(NC(=O)CCCn2nc(C)c3sc4ccccc4c3c2=O)cc1` gave an inhibition of -14%. Work on `Cc1cc(C)cc(NC(=O)c2cn3c4c(ccc(Cl)c4c2=O)OC(C)C3)c1` (stereo unspecified) yielded an inhibition of 9.49%. With `CCCCn1c(=O)c2oc3ccccc3c2n(Cc2ccc(OC)cc2)c1=O` the inhibition was 18.5%. In the case of `O=c1[nH]c(/C=C/c2ccccn2)nc2ccccc12`, the inhibition is reported as active: 37.1%. In the case of `CCOC(=O)C1=C(CS(=O)(=O)c2ccccc2)NC(=O)NC1c1ccccc1OCC` (stereo unspecified), the inhibition is reported as active: 36.1%. Work on `COc1ccccc1CNC(=O)c1ccc(-c2nc(CS(=O)c3ccc(C)cc3)c(C)o2)cc1` (stereo unspecified) yielded an inhibition of -7.82%. `COc1ccc(S(=O)(=O)Nc2ccc3c(c2)sc(=O)n3C)cc1Cl` was tested, and the inhibition was 4.87%. Work on `COc1ccc(NC(=O)C2CCN(S(=O)(=O)c3cn(C)cn3)CC2)cc1Cl` yielded an inhibition of 1.82%. Compound `CC(C)C(=O)Nc1nnc(S(=O)(=O)N(C)Cc2ccc(F)cc2)s1` has an inhibition of -4.35%.
